Paper PMC12199413
Results are given in words; binding and its absence hold for the method and conditions named. In cells and extracts the contact can be indirect. Some entries that bind do so weakly or less than the wild type.

Protein sequences, listed by entry. Tags and fused reporters are not part of them.
UniProt Q80U70: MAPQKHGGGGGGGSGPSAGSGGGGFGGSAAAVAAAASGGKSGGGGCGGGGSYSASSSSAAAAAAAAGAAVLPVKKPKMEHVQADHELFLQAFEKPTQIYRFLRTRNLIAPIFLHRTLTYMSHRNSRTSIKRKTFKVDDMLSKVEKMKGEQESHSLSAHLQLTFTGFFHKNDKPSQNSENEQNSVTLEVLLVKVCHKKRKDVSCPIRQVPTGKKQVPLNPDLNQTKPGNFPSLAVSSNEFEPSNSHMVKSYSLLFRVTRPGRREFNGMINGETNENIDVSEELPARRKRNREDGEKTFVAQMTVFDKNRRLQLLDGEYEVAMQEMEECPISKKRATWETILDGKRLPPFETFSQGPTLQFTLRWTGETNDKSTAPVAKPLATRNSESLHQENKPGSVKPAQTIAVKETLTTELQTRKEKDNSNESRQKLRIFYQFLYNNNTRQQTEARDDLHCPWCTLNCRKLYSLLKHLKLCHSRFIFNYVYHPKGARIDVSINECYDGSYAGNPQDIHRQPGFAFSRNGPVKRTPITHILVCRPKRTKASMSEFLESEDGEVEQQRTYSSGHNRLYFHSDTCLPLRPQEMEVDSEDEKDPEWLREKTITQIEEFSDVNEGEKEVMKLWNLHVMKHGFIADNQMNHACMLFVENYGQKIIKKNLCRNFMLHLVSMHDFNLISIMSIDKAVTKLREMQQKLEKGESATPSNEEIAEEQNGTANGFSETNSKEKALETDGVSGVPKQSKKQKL
UniProt Q921E6: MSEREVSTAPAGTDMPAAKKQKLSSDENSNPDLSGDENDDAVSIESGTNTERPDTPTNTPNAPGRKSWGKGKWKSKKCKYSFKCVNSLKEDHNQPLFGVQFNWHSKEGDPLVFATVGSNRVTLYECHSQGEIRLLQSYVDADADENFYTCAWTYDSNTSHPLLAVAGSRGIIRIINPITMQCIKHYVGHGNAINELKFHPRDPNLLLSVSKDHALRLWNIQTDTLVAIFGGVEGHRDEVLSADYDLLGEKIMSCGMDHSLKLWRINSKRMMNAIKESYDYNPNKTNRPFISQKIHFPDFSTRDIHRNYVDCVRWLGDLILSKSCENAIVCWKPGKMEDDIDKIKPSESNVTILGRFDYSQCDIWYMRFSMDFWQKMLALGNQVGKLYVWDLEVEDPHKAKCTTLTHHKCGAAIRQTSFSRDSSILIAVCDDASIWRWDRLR
UniProt Q61188: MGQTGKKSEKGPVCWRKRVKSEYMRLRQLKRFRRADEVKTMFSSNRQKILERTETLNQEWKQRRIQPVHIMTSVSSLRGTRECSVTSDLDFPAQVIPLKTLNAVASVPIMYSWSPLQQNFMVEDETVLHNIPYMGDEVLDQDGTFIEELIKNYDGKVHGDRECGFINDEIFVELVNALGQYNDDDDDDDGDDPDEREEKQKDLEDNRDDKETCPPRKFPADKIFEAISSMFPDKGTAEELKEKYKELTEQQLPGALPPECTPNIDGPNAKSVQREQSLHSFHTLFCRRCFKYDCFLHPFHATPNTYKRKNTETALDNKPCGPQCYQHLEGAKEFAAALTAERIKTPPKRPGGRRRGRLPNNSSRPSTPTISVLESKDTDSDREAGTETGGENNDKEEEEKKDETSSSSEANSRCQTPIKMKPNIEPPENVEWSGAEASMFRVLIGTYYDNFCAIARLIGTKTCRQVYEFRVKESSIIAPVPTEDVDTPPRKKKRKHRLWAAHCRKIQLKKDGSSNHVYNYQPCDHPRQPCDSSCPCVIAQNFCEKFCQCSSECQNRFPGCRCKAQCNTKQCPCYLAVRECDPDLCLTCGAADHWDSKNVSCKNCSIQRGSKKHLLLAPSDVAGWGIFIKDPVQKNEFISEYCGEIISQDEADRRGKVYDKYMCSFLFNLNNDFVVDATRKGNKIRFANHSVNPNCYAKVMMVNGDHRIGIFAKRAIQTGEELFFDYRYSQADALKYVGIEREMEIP

Columns and labels:
[1] = molecular target: SUZ12 polycomb repressive complex 2 subunit (mouse (endogenous in C2C12)) (UniProt Q80U70); assay: co-IP; C2C12 myoblasts treated with RNase (RNase T1 in the legend); lysate, specific antibodies and Protein A/G agarose beads, Western blot
[2] = molecular target: SUZ12 polycomb repressive complex 2 subunit (mouse (endogenous in C2C12)) (UniProt Q80U70); assay: co-IP; C2C12 myoblast lysate, specific antibodies and Protein A/G agarose beads (Magnetic Co-IP Kit, BersinBio), Western blot; control cells, DNase I, lncRNA-MEG3 overexpression or reintroduction
[3] = molecular target: SUZ12 polycomb repressive complex 2 subunit (mouse (endogenous in C2C12)) (UniProt Q80U70); assay: co-IP; C2C12 myoblasts with knockdown of lncRNA-MEG3 (shRNA); lysate, specific antibodies and Protein A/G agarose beads, Western blot

Substance | binding [1] | binding [2] | binding [3]
EED (from UniProt Q921E6 1-441) | no binding (condition: RNase treatment (RNase T1)) | binds | no binding (condition: lncRNA-MEG3 knockdown)
EZH2 (from UniProt Q61188 1-746) | no binding (condition: RNase treatment (RNase T1)) | – | no binding (condition: lncRNA-MEG3 knockdown)
